Assay results published in PubChem BioAssay AID624417 (National Center for Advancing Translational Sciences (NCATS), 2012).
Where “and” joins values, the source holds several entries; their conditions need not be identical. Equal entries are not always repeated. Screen size: about 410,000 compounds; about 6,400 (1.6%) were called active. The inconclusive results got no clear call from the source; some entries with a clear call stand among them for comparison. Calls come from the whole dose curve; as a rule, active = well fitted inhibition curve with a large enough effect; inconclusive = small, poorly fitted or top-dose-only effect; inactive = no such curve, though single readings can be large or run the other way. A potency beside an inconclusive call is a rough fit, not a confirmed value.

target: Glucagon-like peptide 1 receptor (Homo sapiens) (UniProt P43220); assay: qHTS of GLP-1 Receptor Inverse Agonists (Inhibition Mode); details: HEK293 GLP-1R CRE-luciferase, luminescence, 24 h, GLP-1R form is constitutively active; activity change, negative = inhibition: at 38.3 µM (top of the series) unless noted; note: nearly all actives have a fitted effect of over 55% in size
Sequence of UniProt P43220 (P43220 whole entry, looked up): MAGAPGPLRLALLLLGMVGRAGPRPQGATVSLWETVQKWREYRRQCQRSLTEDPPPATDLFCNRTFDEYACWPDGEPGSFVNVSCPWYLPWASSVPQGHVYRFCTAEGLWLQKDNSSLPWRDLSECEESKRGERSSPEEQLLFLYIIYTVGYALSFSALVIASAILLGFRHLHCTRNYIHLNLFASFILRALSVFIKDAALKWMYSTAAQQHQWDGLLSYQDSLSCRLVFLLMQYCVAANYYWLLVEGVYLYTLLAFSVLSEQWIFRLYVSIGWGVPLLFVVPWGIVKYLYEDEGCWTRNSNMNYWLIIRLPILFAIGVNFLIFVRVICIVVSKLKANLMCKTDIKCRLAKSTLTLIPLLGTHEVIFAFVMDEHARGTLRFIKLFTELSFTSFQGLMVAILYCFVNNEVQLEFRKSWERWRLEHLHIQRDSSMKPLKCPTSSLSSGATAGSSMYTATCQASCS
Summary of the method: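 Using stably transfected HEK293 (constitutively active GLP-1R, cAMP-luciferase reporter), compounds were incubated 24 hr and luciferase measured by luminescence.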
% is set by controls: 0 for no effect and ±100 for the full control effect; potency is the fitted concentration of half-maximal effect; tags give direction and shape of the fitted curve.

SMILES | Potency | activity change, negative = inhibition
Cc1cccc(NC(=O)CC2C(=O)NCCN2C(=S)Nc2ccccc2)c1 (centres undefined) | inconclusive: 28.2 µM [inhibitor, single point] | –
Cc1ccc(C(=O)OCC(=O)N2CCC(c3ccccc3)=N2)cc1 | inconclusive: 11.2 µM [inhibitor, single point] | –
CC1=C(C(=O)Nc2cccc(C(F)(F)F)c2)C2(CCCCCC2)OC1=O | inconclusive: 11.2 µM [inhibitor, single point] | –
Cc1cc(C)cc(C(O)c2ncc(-c3ccc(C(F)(F)F)cc3)[nH]2)c1 (centres undefined) | inconclusive: 12.6 µM [inhibitor, single point] | –
O=C(NCCC1=CCCCC1)c1ccc(Cl)c([N+](=O)[O-])c1 | inconclusive: 22.4 µM [inhibitor, single point] | –
CC(C)(C)c1ccc(NC(=O)COc2ccc(-n3ccnc3)cc2)cc1 | inconclusive: 1 µM [inhibitor, partial curve, poor fit] | –
O=C(NC1CCCCC1)C(=S)NCc1ccccc1 | inconclusive: 28.2 µM [inhibitor, single point] | –
CNCC(=O)N1CCN(c2ncc(C(F)(F)F)cc2Cl)CC1 | inconclusive: 10 µM [inhibitor, partial curve] | –
CCN1CCN(Cc2ccc(NC(=O)c3ccc(C)c(NC(=O)N4CCNC4=O)c3)cc2C(F)(F)F)CC1 | inconclusive: 28.2 µM [inhibitor, single point] and inconclusive: 10 µM [inhibitor, single point] | –
Cc1ccc(OCc2ccc(C(=O)NCC3CCCO3)cc2)cc1C (centres undefined) | inconclusive: 17.8 µM [inhibitor, single point] | –
CCc1ccccc1NC(=O)CCCSc1nc2ccccc2s1 | inconclusive: 11.2 µM [inhibitor, partial curve, poor fit] | –
CC(=O)c1ccc(-c2cccc(-c3nc4ccccn4c3NC3CCCCC3)c2)cc1 | inconclusive: 11.2 µM [inhibitor, single point] | –
Cc1ccc(NS(=O)(=O)c2ccc(-c3coc(C)n3)cc2)c(Br)c1 | inconclusive: 28.2 µM [inhibitor, single point] | –
O=C(N/N=C/c1ccc(OC(=O)c2ccccc2)cc1)c1cccc(O)c1 | inconclusive: 28.2 µM [inhibitor, single point] | –
Cc1ccc(S(=O)(=O)Cc2ccc(C(=O)N3CCN(c4ccccn4)CC3)o2)cc1 | inconclusive: 5.01 µM [inhibitor, partial curve] | –
CC1CCN(S(=O)(=O)c2ccc(C(C)C)cc2)CC1 | inconclusive: 10 µM [inhibitor, partial curve, poor fit] | –
COC(=O)/C=C1\SC(=Nc2ccc(Cl)c(Cl)c2)NC1=O | – | inactive: 44.8%
CN(C(=O)c1cccc(NC(=O)Cc2ccc(NC(=O)C3CCCN(C(=O)C4CCC4)C3)cc2)c1)C1CCCC1 (centres undefined) | – | inactive: -8.8%
O=C(O)CN1C(=O)/C(=C\c2cccc(OCc3ccc(F)cc3)c2)SC1=S | – | inactive: -10.2%
CCNC(=S)Nc1ccc2c(c1)oc1ccccc12 | inconclusive: 11.2 µM [inhibitor, single point] | –

SMILES | Potency | activity change, negative = inhibition
Cc1ccccc1NC(=O)CN1C(=O)CSc2ccc(S(=O)(=O)N3CCCCC3)cc21 | inconclusive: 2.24 µM [inhibitor, full curve] | –
CSCCC(NC(=O)COc1ccccc1)C(=O)N(C)Cc1ccc(F)cc1 (centres undefined) | inconclusive: 11.2 µM [inhibitor, partial curve, poor fit] | –
Cc1ccc(CNC(=O)CCc2ccc(S(=O)(=O)NC3CCCCC3)cc2)cc1 | inconclusive: 11.2 µM [inhibitor, single point] | –
O=C(CNc1cccc([N+](=O)[O-])c1)NC(=O)NC1CCCCC1 | inconclusive: 8.91 µM [inhibitor, partial curve, poor fit] | –
CCc1nc2ccc(C(=O)NCCOc3ccc(OC)cc3)cn2c1N(CCN(C)C)CC1CC1 | inconclusive: 11.2 µM [inhibitor, partial curve, poor fit] | –
Cn1nc(C(C)(C)C)cc1C(=O)N1CCCCC1c1cc(C(=O)Nc2cccc3c2CCCC3)no1 (centres undefined) | inconclusive: 28.2 µM [inhibitor, partial curve, poor fit] | –
CCCC/C=C/c1cccc2nncn12 | – | inactive: 5.17%
CCOc1ccc(C(=O)NCCn2cc(SCC(=O)Nc3cc(C)on3)c3ccccc32)cc1 | inconclusive: 10 µM [inhibitor, partial curve, poor fit] | –
CCc1ccc(C(=O)CN2C(=O)NC(C)(c3ccc(C)cc3)C2=O)cc1 (centres undefined) | inconclusive: 10 µM [inhibitor, single point] | –
O=C(Nc1ccc(N2CCCC2)c(Cl)c1)c1cccs1 | inconclusive: 8.91 µM [inhibitor, single point] | –
CCc1nc2ccc(C(=O)NCCc3ccc(OC)cc3OC)cc2nc1CC | inconclusive: 20 µM [inhibitor, single point] | –
C=CC[C@@H](CC(=O)N(CCO)Cc1ccccc1)C(=O)NCCOC(=O)[C@@H](CC=C)Cc1ccc(F)cc1 | inconclusive: 28.2 µM [inhibitor, single point] | –
COc1ccc(C(=O)N2CCCC(N3CCN(c4ccccc4OC)CC3)C2)c(OC)n1 (centres undefined) | inconclusive: 2.82 µM [inhibitor, full curve] | –
CCOC(=O)/C=C/S(=O)(=O)c1ccc(NC(C)=O)cc1 | inconclusive: 12.6 µM [inhibitor, single point] | –
CCc1oc2ccccc2c1C(=O)CCN1CCCCC1 | – | inactive: 0%
COc1ccccc1NC(=O)NC1CCCCCCC1 | inconclusive: 10 µM [inhibitor, partial curve, poor fit] | –
Cc1nc2ccccc2c2oc(C(=O)NCCCN3CC(C)CC(C)C3)cc12 (centres undefined) | inconclusive: 28.2 µM [inhibitor, single point] | –
Cc1ccc2c(CN(Cc3ccccc3)Cc3ccccc3)cc(=O)oc2c1 | inconclusive: 12.6 µM [inhibitor, single point] | –
Cc1ccc(S(=O)(=O)N2CCN(C(=O)Cc3ccc4c(c3)OCCO4)CC2)cc1C | inconclusive: 10 µM [inhibitor, partial curve, poor fit] | –
